In patent publication US20060135431A1 (published 2006):

Biological target: T1, recombinant human AGP3 (human, UniProt Q9Y275 partial chain, limits assumed)
T1 construct: also called TALL-1; human AGP3 protein
Test: KinExA solution equilibrium: 100 pM and 40 pM peptibody incubated with human AGP3, free peptibody captured on human AGP3-coated beads

T1 sequence (Q9Y275 134-285 limits assumed): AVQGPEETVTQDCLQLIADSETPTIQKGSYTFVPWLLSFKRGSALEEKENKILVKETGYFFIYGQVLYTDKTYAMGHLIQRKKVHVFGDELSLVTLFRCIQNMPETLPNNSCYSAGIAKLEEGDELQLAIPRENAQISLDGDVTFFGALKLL

B1: TALL-1 12-3 tandem dimer peptibody (Fc fusion)
chain: MLPGCKWDLLIKQWVCDPLGSGSATGGSGSTASSGSGSATHMLPGCKWDLLIKQWVCDPLGGGGGV[human IgG1 Fc not spelt out]
notes: also called AGP3 peptibody; AGP3 Pb
Kd: ~4 pM
